Results reported in the supplement of paper PMC12217912.
This is one part of the list. Sequences were assembled here from the parent chain. Inactive controls read about 0.05.

B1: TEV protease; numbered along this chain (parent)
chain: MGESLFKGPRDYNPISSSICHLTNESDGHTTSLYGIGFGPFIITNKHLFRRNNGTLVVQSLHGVFKVKDTTTLQQHLVDGRDMIIIRMPKDFPPFPQKLKFREPQREERICLVTTNFQTKSMSSMVSDTSCTFPSGDGIFWKHWIQTKDGQCGSPLVSTRDGFIVGIHSASNFTNTNNYFTSVPKNFMELLTNQEAQQWVSGWRLNADSVLWGGHKVFMVKPEEPFQPVKEATQL

Variants of: B1
Experiment: raw area under fraction-flipped curve 0-4 h after induction (AUC4h, not background-subtracted), DNA-recorder readout of cleavage of the substrate (dimensionless); higher = more cleavage of the substrate by the protease variant
Conditions: temperature: 34 °C; time window: 0-4 h after rhamnose induction
Experimental: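 In vivo DNA recorder in E. coli TOP10(DE3) ΔrhaA at 34 °C. Each TEVp single-site mutant (parent TEVp 0) is paired with a single-site variant of the 7-mer TEVs (canonical ENLYFQ|S). The substrate sits between flexible linkers in a Bxb1-sfGFP-TEVs-SsrA fusion, so cleavage stabilises Bxb1 and speeds flipping of a recombination array, read by NGS. The value is the raw area under the fraction-flipped curve over 0-4 h after rhamnose induction (AUC4h), with ≥20 reads per time point. It is not background-subtracted; inactive controls average about 0.047.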
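Note: Bxb1 expression induced with 0.2% (w/v) L-rhamnose at OD600 near 0.5, cultures sampled hourly, flipped fraction per protease–substrate barcode pair counted by paired-end Illumina sequencing.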

In the case of MGESLFKGPRDYNPISSSICHLTNESDGHTTNLYGIGFGPFIITNKHLFRRNNGTLVVQSLHGVFKVKDTTTLQQHLVDGRDMIIIRMPKDFPPFPQKLKFREPQREERICLVTTNFQTKSMSSMVSDTSCTFPSGDGIFWKHWIQTKDGQCGSPLVSTRDGFIVGIHSASNFTNTNNYFTSVPKNFMELLTNQEAQQWVSGWRLNADSVLWGGHKVFMVKPEEPFQPVKEATQL [S32N], the “area with substrate EALYFQS” value is reported as 0.0922, the “area with substrate EDLYFQS” value is reported as 0.0858 and the “area with substrate EELYFQS” value is reported as 0.106. For the same variant, the “area with substrate EILYFQS” value was 0.0321, the “area with substrate EKLYFQS” value was 0.0807 and the “area with substrate ELLYFQS” value was 0.0949. For the same variant, the “area with substrate EMLYFQS” value was 0.0982, the “area with substrate EPLYFQS” value was 0.104 and the “area with substrate EQLYFQS” value was 0.0771. The “area with substrate ERLYFQS” value was 0.0781, the “area with substrate ESLYFQS” value was 0.0779 and the “area with substrate EVLYFQS” value was 0.0784. The “area with substrate EWLYFQS” value was 0.0952.

In the case of MGESLFKGPRDYNPISSSICHLTNESDGHTTSFYGIGFGPFIITNKHLFRRNNGTLVVQSLHGVFKVKDTTTLQQHLVDGRDMIIIRMPKDFPPFPQKLKFREPQREERICLVTTNFQTKSMSSMVSDTSCTFPSGDGIFWKHWIQTKDGQCGSPLVSTRDGFIVGIHSASNFTNTNNYFTSVPKNFMELLTNQEAQQWVSGWRLNADSVLWGGHKVFMVKPEEPFQPVKEATQL [L33F], the “area with substrate EALYFQS” value is reported as 0.0565, the “area with substrate ECLYFQS” value is reported as 0.0679 and the “area with substrate EELYFQS” value is reported as 0.053. For the same variant, the “area with substrate EGLYFQS” value was 0.0669, the “area with substrate EHLYFQS” value was 0.0536 and the “area with substrate EILYFQS” value was 0.0639. The “area with substrate EKLYFQS” value was 0.0494, the “area with substrate ELLYFQS” value was 0.0617 and the “area with substrate EMLYFQS” value was 0.0698. The “area with substrate EPLYFQS” value was 0.0632, the “area with substrate EQLYFQS” value was 0.0646 and the “area with substrate ERLYFQS” value was 0.0383. For the same variant, the “area with substrate ESLYFQS” value was 0.0608, the “area with substrate ETLYFQS” value was 0.0608 and the “area with substrate EVLYFQS” value was 0.0544. For the same variant, the “area with substrate EWLYFQS” value was 0.059.

For MGESLFKGPRDYNPISSSICHLTNESDGHTTSQYGIGFGPFIITNKHLFRRNNGTLVVQSLHGVFKVKDTTTLQQHLVDGRDMIIIRMPKDFPPFPQKLKFREPQREERICLVTTNFQTKSMSSMVSDTSCTFPSGDGIFWKHWIQTKDGQCGSPLVSTRDGFIVGIHSASNFTNTNNYFTSVPKNFMELLTNQEAQQWVSGWRLNADSVLWGGHKVFMVKPEEPFQPVKEATQL [L33Q], the “area with substrate EALYFQS” value was 0.0852, the “area with substrate ECLYFQS” value was 0.0702 and the “area with substrate EDLYFQS” value was 0.132. For the same variant, the “area with substrate EELYFQS” value was 0.0541, the “area with substrate EKLYFQS” value was 0.0736 and the “area with substrate ELLYFQS” value was 0.0698. The “area with substrate EMLYFQS” value was 0.0612, the “area with substrate EPLYFQS” value was 0.0905 and the “area with substrate EQLYFQS” value was 0.0883. For the same variant, the “area with substrate ESLYFQS” value was 0.0897, the “area with substrate ETLYFQS” value was 0.108 and the “area with substrate EVLYFQS” value was 0.0779. For the same variant, the “area with substrate EWLYFQS” value was 0.0912.

For MGESLFKGPRDYNPISSSICHLTNESDGHTTSVYGIGFGPFIITNKHLFRRNNGTLVVQSLHGVFKVKDTTTLQQHLVDGRDMIIIRMPKDFPPFPQKLKFREPQREERICLVTTNFQTKSMSSMVSDTSCTFPSGDGIFWKHWIQTKDGQCGSPLVSTRDGFIVGIHSASNFTNTNNYFTSVPKNFMELLTNQEAQQWVSGWRLNADSVLWGGHKVFMVKPEEPFQPVKEATQL [L33V], the “area with substrate EALYFQS” value was 0.105, the “area with substrate ECLYFQS” value was 0.078 and the “area with substrate EELYFQS” value was 0.102. For the same variant, the “area with substrate EFLYFQS” value was 0.103, the “area with substrate EGLYFQS” value was 0.116 and the “area with substrate EHLYFQS” value was 0.0892. For the same variant, the “area with substrate EKLYFQS” value was 0.0638, the “area with substrate ELLYFQS” value was 0.0984 and the “area with substrate EMLYFQS” value was 0.115. The “area with substrate EPLYFQS” value was 0.0927, the “area with substrate EQLYFQS” value was 0.119 and the “area with substrate ESLYFQS” value was 0.0857. For the same variant, the “area with substrate ETLYFQS” value was 0.107 and the “area with substrate EYLYFQS” value was 0.152.

With MGESLFKGPRDYNPISSSICHLTNESDGHTTSLCGIGFGPFIITNKHLFRRNNGTLVVQSLHGVFKVKDTTTLQQHLVDGRDMIIIRMPKDFPPFPQKLKFREPQREERICLVTTNFQTKSMSSMVSDTSCTFPSGDGIFWKHWIQTKDGQCGSPLVSTRDGFIVGIHSASNFTNTNNYFTSVPKNFMELLTNQEAQQWVSGWRLNADSVLWGGHKVFMVKPEEPFQPVKEATQL [Y34C] the “area with substrate EALYFQS” value was 0.103, the “area with substrate ECLYFQS” value was 0.0954 and the “area with substrate EDLYFQS” value was 0.116. For the same variant, the “area with substrate EFLYFQS” value was 0.101, the “area with substrate EGLYFQS” value was 0.0786 and the “area with substrate EHLYFQS” value was 0.111. The “area with substrate EILYFQS” value was 0.0725, the “area with substrate EKLYFQS” value was 0.106 and the “area with substrate EMLYFQS” value was 0.103. The “area with substrate EPLYFQS” value was 0.119, the “area with substrate EQLYFQS” value was 0.112 and the “area with substrate ERLYFQS” value was 0.0737. For the same variant, the “area with substrate ESLYFQS” value was 0.0795, the “area with substrate ETLYFQS” value was 0.117 and the “area with substrate EVLYFQS” value was 0.0938. For the same variant, the “area with substrate EWLYFQS” value was 0.117.

With MGESLFKGPRDYNPISSSICHLTNESDGHTTSLYGCGFGPFIITNKHLFRRNNGTLVVQSLHGVFKVKDTTTLQQHLVDGRDMIIIRMPKDFPPFPQKLKFREPQREERICLVTTNFQTKSMSSMVSDTSCTFPSGDGIFWKHWIQTKDGQCGSPLVSTRDGFIVGIHSASNFTNTNNYFTSVPKNFMELLTNQEAQQWVSGWRLNADSVLWGGHKVFMVKPEEPFQPVKEATQL [I36C] the “area with substrate EALYFQS” value was 0.0999, the “area with substrate ECLYFQS” value was 0.102 and the “area with substrate EDLYFQS” value was 0.117. For the same variant, the “area with substrate EGLYFQS” value was 0.108, the “area with substrate EILYFQS” value was 0.0609 and the “area with substrate EKLYFQS” value was 0.0951. The “area with substrate ELLYFQS” value was 0.0937, the “area with substrate EMLYFQS” value was 0.111 and the “area with substrate EPLYFQS” value was 0.133. For the same variant, the “area with substrate EQLYFQS” value was 0.105, the “area with substrate ERLYFQS” value was 0.106 and the “area with substrate ESLYFQS” value was 0.117. The “area with substrate EWLYFQS” value was 0.0827 and the “area with substrate EYLYFQS” value was 0.118.

With MGESLFKGPRDYNPISSSICHLTNESDGHTTSLYGNGFGPFIITNKHLFRRNNGTLVVQSLHGVFKVKDTTTLQQHLVDGRDMIIIRMPKDFPPFPQKLKFREPQREERICLVTTNFQTKSMSSMVSDTSCTFPSGDGIFWKHWIQTKDGQCGSPLVSTRDGFIVGIHSASNFTNTNNYFTSVPKNFMELLTNQEAQQWVSGWRLNADSVLWGGHKVFMVKPEEPFQPVKEATQL [I36N] the “area with substrate EALYFQS” value was 0.0711, the “area with substrate ECLYFQS” value was 0.0848 and the “area with substrate EDLYFQS” value was 0.0852. For the same variant, the “area with substrate EELYFQS” value was 0.084, the “area with substrate EGLYFQS” value was 0.0765 and the “area with substrate EHLYFQS” value was 0.0593. The “area with substrate EILYFQS” value was 0.0581, the “area with substrate EKLYFQS” value was 0.0814 and the “area with substrate ELLYFQS” value was 0.0661. The “area with substrate EMLYFQS” value was 0.0772, the “area with substrate EPLYFQS” value was 0.0882 and the “area with substrate EQLYFQS” value was 0.078. The “area with substrate ERLYFQS” value was 0.0761, the “area with substrate ESLYFQS” value was 0.0589 and the “area with substrate ETLYFQS” value was 0.063. For the same variant, the “area with substrate EVLYFQS” value was 0.0736, the “area with substrate EWLYFQS” value was 0.0566 and the “area with substrate EYLYFQS” value was 0.0676.

With MGESLFKGPRDYNPISSSICHLTNESDGHTTSLYGILFGPFIITNKHLFRRNNGTLVVQSLHGVFKVKDTTTLQQHLVDGRDMIIIRMPKDFPPFPQKLKFREPQREERICLVTTNFQTKSMSSMVSDTSCTFPSGDGIFWKHWIQTKDGQCGSPLVSTRDGFIVGIHSASNFTNTNNYFTSVPKNFMELLTNQEAQQWVSGWRLNADSVLWGGHKVFMVKPEEPFQPVKEATQL [G37L] the “area with substrate EALYFQS” value was 0.0714, the “area with substrate ECLYFQS” value was 0.0758 and the “area with substrate EDLYFQS” value was 0.0978. The “area with substrate EELYFQS” value was 0.0954, the “area with substrate EILYFQS” value was 0.0756 and the “area with substrate EKLYFQS” value was 0.0646. For the same variant, the “area with substrate ELLYFQS” value was 0.0676, the “area with substrate EPLYFQS” value was 0.107 and the “area with substrate EQLYFQS” value was 0.107. The “area with substrate ERLYFQS” value was 0.0096, the “area with substrate ESLYFQS” value was 0.0798 and the “area with substrate EVLYFQS” value was 0.0456. For the same variant, the “area with substrate EYLYFQS” value was 0.0561.

In the case of MGESLFKGPRDYNPISSSICHLTNESDGHTTSLYGIRFGPFIITNKHLFRRNNGTLVVQSLHGVFKVKDTTTLQQHLVDGRDMIIIRMPKDFPPFPQKLKFREPQREERICLVTTNFQTKSMSSMVSDTSCTFPSGDGIFWKHWIQTKDGQCGSPLVSTRDGFIVGIHSASNFTNTNNYFTSVPKNFMELLTNQEAQQWVSGWRLNADSVLWGGHKVFMVKPEEPFQPVKEATQL [G37R], the “area with substrate EALYFQS” value is reported as 0.0738, the “area with substrate ECLYFQS” value is reported as 0.0694 and the “area with substrate EDLYFQS” value is reported as 0.0784. The “area with substrate EELYFQS” value was 0.0818, the “area with substrate EGLYFQS” value was 0.0902 and the “area with substrate EHLYFQS” value was 0.0736. For the same variant, the “area with substrate EILYFQS” value was 0.0672, the “area with substrate EKLYFQS” value was 0.0758 and the “area with substrate ELLYFQS” value was 0.073. The “area with substrate EMLYFQS” value was 0.0805, the “area with substrate EQLYFQS” value was 0.0807 and the “area with substrate ESLYFQS” value was 0.0652. For the same variant, the “area with substrate ETLYFQS” value was 0.0896, the “area with substrate EVLYFQS” value was 0.0732 and the “area with substrate EYLYFQS” value was 0.0692.
